# Test results reported in the supplement of paper PMC8728848.
# The other results are listed elsewhere or left out.
# B1: PX9937A-bvu-521-23-521 (Bacteroides vulgatus) (protein)
# chain: LDLAPEDYYGAGNFWKEASQPKAFMLGLHAQLRSYYDMFYTLGELRGGTQRVGTSSLNTSLNYADIRSQNISEDIPGISNWNGLYSPIMQVNHFIQEVENGCTFLDDATRSRYLGQAYGMRALYYFMLYRTFGGVPLITKVDILDGKPSADKFYVERATPEATMEFIKADINKSENYFGNNTSFDAYDWSRYATLMLKAEIYMWAAKVSITGFTATGATDLQTAKTALSGIIGHFELMDNFASIFSCDNKKNTEIIFAMPFIEGEASNDGGRFLYQDAVFLGQAYGRNGKVIEKDTLNLKGTGGVFRDEYTEDFWKTFKEGDSRRDATFMEYYMKNDNGTLSEFGCVMKKRIGTINSNDNRIYISDIPVYRYADALLMMAEIENGLNNPCASYINEVRKRAYGDTFEENKYTEGSYAENELAILQERDKEFVSEGKRWFDVLRMHDASGRSLVFSANANYPGTNPILGTEEAYKMLWPVNIGTLNVNPLLTQTPGYGKK
# Tests used:
# Experiment in all cases: glycan array binding signal (z-score within array); higher = stronger binding
# Conditions in all cases: glycan notation: IUPAC condensed, linker removed
# Fuc(a1-2)Gal = target: Fuc(a1-2)Gal
# Procedure, shortened: (§1)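 From the Consortium for Functional Glycomics database, 3228 arrays were curated, keeping only those whose protein sequence was available. Binding is given as a within-array Z-score averaged across arrays sharing a protein sequence and across linkers. Negative Z-scores can be read as non-binding.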
# Fuc(a1-2)Gal(b1-3)GalNAc = target: Fuc(a1-2)Gal(b1-3)GalNAc
# Procedure, shortened: as §1
# [1] = target: Fuc(a1-2)Gal(b1-3)GalNAc(a1-3)[Fuc(a1-2)]Gal(b1-4)Glc
# Procedure, shortened: as §1
# [2] = target: Fuc(a1-2)Gal(b1-3)GalNAc(a1-3)[Fuc(a1-2)]Gal(b1-4)GlcNAc
# Procedure, shortened: as §1
# [3] = target: Fuc(a1-2)Gal(b1-3)GalNAc(b1-3)Gal
# Procedure, shortened: as §1
# [4] = target: Fuc(a1-2)Gal(b1-3)GalNAc(b1-3)Gal(a1-4)Gal(b1-4)Glc
# Procedure, shortened: as §1
# [5] = target: Fuc(a1-2)Gal(b1-3)GalNAc(b1-4)[Neu5Ac(a2-3)]Gal(b1-4)Glc
# Procedure, shortened: as §1
# Fuc(a1-2)Gal(b1-3)GlcNAc = target: Fuc(a1-2)Gal(b1-3)GlcNAc
# Procedure, shortened: as §1
# [6] = target: Fuc(a1-2)Gal(b1-3)GlcNAc(b1-2)Man(a1-3)[Fuc(a1-2)Gal(b1-3)GlcNAc(b1-2)Man(a1-6)]Man(b1-4)GlcNAc(b1-4)GlcNAc
# Procedure, shortened: as §1
# [7] = target: Fuc(a1-2)Gal(b1-3)GlcNAc(b1-2)Man(a1-3)[Fuc(a1-2)Gal(b1-3)GlcNAc(b1-2)Man(a1-6)]Man(b1-4)GlcNAc(b1-4)[Fuc(a1-6)]GlcNAc
# Procedure, shortened: as §1
# [8] = target: Fuc(a1-2)Gal(b1-3)GlcNAc(b1-3)Gal(b1-4)Glc
# Procedure, shortened: as §1
# [9] = target: Fuc(a1-2)Gal(b1-3)GlcNAc(b1-3)GalNAc
# Procedure, shortened: as §1
# [10] = target: Fuc(a1-2)Gal(b1-3)GlcNAc(b1-3)[Fuc(a1-2)Gal(b1-3)GlcNAc(b1-6)]GalNAc
# Procedure, shortened: as §1
# [11] = target: Fuc(a1-2)Gal(b1-3)GlcNAc(b1-3)[Gal(b1-4)GlcNAc(b1-6)]Gal(b1-4)Glc
# Procedure, shortened: as §1
# [12] = target: Fuc(a1-2)Gal(b1-3)GlcNAc(b1-3)[Neu5Ac(a2-6)Gal(b1-4)GlcNAc(b1-6)]Gal(b1-4)Glc
# Procedure, shortened: as §1
# [13] = target: Fuc(a1-2)Gal(b1-3)GlcNAc6S
# Procedure, shortened: as §1
# [14] = target: Fuc(a1-2)Gal(b1-3)[Fuc(a1-4)]GlcNAc
# Procedure, shortened: as §1
# [15] = target: Fuc(a1-2)Gal(b1-3)[Fuc(a1-4)]GlcNAc(b1-2)Man(a1-3)[Fuc(a1-2)Gal(b1-3)[Fuc(a1-4)]GlcNAc(b1-2)Man(a1-3)]Man(b1-4)GlcNAc(b1-4)GlcNAc
# Procedure, shortened: as §1
# [16] = target: Fuc(a1-2)Gal(b1-3)[Fuc(a1-4)]GlcNAc(b1-2)Man(a1-3)[Fuc(a1-2)Gal(b1-3)[Fuc(a1-4)]GlcNAc(b1-2)Man(a1-6)]Man(b1-4)GlcNAc(b1-4)[Fuc(a1-6)]GlcNAc(b1-4)[Fuc(a1-6)]GlcNAc
# Procedure, shortened: as §1
# [17] = target: Fuc(a1-2)Gal(b1-3)[Fuc(a1-4)]GlcNAc(b1-3)[Fuc(a1-3)[Gal(b1-4)]GlcNAc(b1-6)]Gal(b1-4)Glc
# Procedure, shortened: as §1
# [18] = target: Fuc(a1-2)Gal(b1-3)[Fuc(a1-4)]GlcNAc(b1-3)[Gal(b1-4)GlcNAc(b1-6)]Gal(b1-4)Glc
# Procedure, shortened: as §1
# Fuc(a1-2)Gal(b1-4)Glc = target: Fuc(a1-2)Gal(b1-4)Glc
# Procedure, shortened: as §1
# Fuc(a1-2)Gal(b1-4)Glc6S = target: Fuc(a1-2)Gal(b1-4)Glc6S
# Procedure, shortened: as §1
# Fuc(a1-2)Gal(b1-4)GlcNAc = target: Fuc(a1-2)Gal(b1-4)GlcNAc
# Procedure, shortened: as §1
# [19] = target: Fuc(a1-2)Gal(b1-4)GlcNAc(b1-2)Man
# Procedure, shortened: as §1
# [20] = target: Fuc(a1-2)Gal(b1-4)GlcNAc(b1-2)Man(a1-3)[Fuc(a1-2)Gal(b1-4)GlcNAc(b1-2)Man(a1-6)]Man(b1-4)GlcNAc(b1-4)GlcNAc
# Procedure, shortened: as §1
# [21] = target: Fuc(a1-2)Gal(b1-4)GlcNAc(b1-2)Man(a1-3)[Fuc(a1-2)Gal(b1-4)GlcNAc(b1-2)Man(a1-6)]Man(b1-4)GlcNAc(b1-4)[Fuc(a1-6)]GlcNAc
# Procedure, shortened: as §1
# [22] = target: Fuc(a1-2)Gal(b1-4)GlcNAc(b1-2)[Fuc(a1-2)Gal(b1-4)GlcNAc(b1-4)]Man(a1-3)[Fuc(a1-2)Gal(b1-4)GlcNAc(b1-2)Man(a1-6)]Man(b1-4)GlcNAc(b1-4)GlcNAc
# Procedure, shortened: as §1
# [23] = target: Fuc(a1-2)Gal(b1-4)GlcNAc(b1-3)Gal(b1-4)GlcNAc
# Procedure, shortened: as §1
# [24] = target: Fuc(a1-2)Gal(b1-4)GlcNAc(b1-3)Gal(b1-4)GlcNAc(b1-2)Man(a1-3)[Fuc(a1-2)Gal(b1-4)GlcNAc(b1-3)Gal(b1-4)GlcNAc(b1-2)Man(a1-6)]Man(b1-4)GlcNAc(b1-4)GlcNAc
# Procedure, shortened: as §1
binder,measurement,setting,value
B1,glycan array binding signal (z-score),Fuc(a1-2)Gal,-0.191
same,glycan array binding signal (z-score),Fuc(a1-2)Gal(b1-3)GalNAc,-0.307
same,glycan array binding signal (z-score),[1],-0.339
same,glycan array binding signal (z-score),[2],0.427
same,glycan array binding signal (z-score),[3],-0.141
same,glycan array binding signal (z-score),[4],-0.267
same,glycan array binding signal (z-score),[5],-0.019
same,glycan array binding signal (z-score),Fuc(a1-2)Gal(b1-3)GlcNAc,-0.251
same,glycan array binding signal (z-score),[6],0.779
same,glycan array binding signal (z-score),[7],-0.54
same,glycan array binding signal (z-score),[8],-0.28
same,glycan array binding signal (z-score),[9],-0.414
same,glycan array binding signal (z-score),[10],-0.583
same,glycan array binding signal (z-score),[11],-0.533
same,glycan array binding signal (z-score),[12],-0.405
same,glycan array binding signal (z-score),[13],0.155
same,glycan array binding signal (z-score),[14],-0.523
same,glycan array binding signal (z-score),[15],0.234
same,glycan array binding signal (z-score),[16],-0.195
same,glycan array binding signal (z-score),[17],-0.621
same,glycan array binding signal (z-score),[18],0.313
same,glycan array binding signal (z-score),Fuc(a1-2)Gal(b1-4)Glc,-0.301
same,glycan array binding signal (z-score),Fuc(a1-2)Gal(b1-4)Glc6S,-0.228
same,glycan array binding signal (z-score),Fuc(a1-2)Gal(b1-4)GlcNAc,-0.41
same,glycan array binding signal (z-score),[19],0.09
same,glycan array binding signal (z-score),[20],0.134
same,glycan array binding signal (z-score),[21],0.307
same,glycan array binding signal (z-score),[22],0.752
same,glycan array binding signal (z-score),[23],-0.02
same,glycan array binding signal (z-score),[24],0.158
